Source: the supplement of paper PMC11417369
± gives the standard deviation of the averaged measurements. The list shows a part of the results.

What follows are sequences tested on PfAP2-EXP AP2 domain (GST-tagged) (assay: gcPBM binding intensity (ln(normalized median fluorescence intensity)); higher = stronger DNA binding).
Method in brief: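 Plasmodium falciparum DNA-binding domains carrying a GST tag were expressed in E. coli and applied for 1 h, at about 25 μg on average, to an Agilent 4 × 180k array. The array held primer-extended double-stranded 36-bp intergenic genomic probes together with negative controls, and binding took place in 1× PBS with 1% milk, 0.2 mg/ml BSA, 0.5% salmon testes DNA and 0.03% Triton X-100. An Alexa488 anti-GST antibody detected bound protein, and the array was scanned at 488 nm. Binding intensity is taken as the highest Masliner-normalised natural-log median intensity across replicate spots of either probe orientation.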

Sequence	gcPBM binding intensity (ln)
TAATTACCATATGGTACACACATATATATCTGTATA [CACACA_site5849]	8.73 ± 0.48
AATAATATCTGAAAATGTACATTTTATTATAAACAT [XGTACX_site8441]	8.62 ± 0.47
AAGAAGAGTTATTGTAGTACATTTTTAAATGTAATA [XGTACX_site7664]	8.32 ± 0.38
AAGAATTATAGAAACACACATACATACAGACATACA [CACACA_site1943]	8.95 ± 0.46
TATTTGGGTATTTTTACACACATTAATATATATATA [CACACA_site9114]	9.39 ± 0.11
ATAATGGAAAAAAAATATAATAATACGAAATAGGAA [TGCATGCA_negctrl_site64]	8.5 ± 0.21
AAAGATAATAATATGCGTACATAAAAATATATGATA [XGTACX_site6884]	8.59 ± 0.31
TGAATCAATTGTTGCTGTACATAAGGTATACAATAA [XGTACX_site5127]	8.73 ± 0.4
TTTTTTTAATAAATTTATAACAATATGATAGGTGAC [CACACA_negctrl_site1783]	8.88 ± 0.39
AGTTAAATGAATCAATACATAAATATGTATATATAT [TGCATGCA_negctrl_site539]	8.59 ± 0.057
TGTATACACATATGTACACACATATAGATGTATATG [CACACA_site7447]	8.44 ± 0.16
TAAATAAATACATACACACACATACCTATATTTATA [CACACA_site7466]	8.65 ± 0.45
AATATAAATATAAATATAAATATATATATATATATA [TGCATGCA_negctrl_site603]	9.97 ± 0.38
TTTTATAAAAACAAAAACAAAGGCACTTTCTAAAGA [XGTACX_negctrl_site130]	8.7 ± 0.52
ATAATGTATATTATTGCACACATATATAAAATTATG [CACACA_site8280]	8.55 ± 0.13
CATTTTTTGTAAAATCGTACATATACATAAAGTGGT [XGTACX_site3423]	8.66 ± 0.34
CACAAAAGTAAGCACGCACACACAACATGAAATAAA [CACACA_site7938]	8.71 ± 0.52
ATATAAAATATGAGTAGTACATATTTTCTCATCTTA [XGTACX_site8595]	8.24 ± 0.4
GGGAAACGATTTAATACACACACGTATTATATATAT [CACACA_site1160]	8.8 ± 0.19
AATTTTATTTAAAGTGCATGTAAAATTAAAACTTTT [TGCATGCA_site989]	8.54 ± 0.28
AAAGACAAAAGGAATTGTACATAATATATAAAATAT [XGTACX_site2923]	8.64 ± 0.42
TATGAATTTATCTACAACATTTGAAATAAATTAAAA [CACACA_negctrl_site79]	8.03 ± 0.45

Sequence	gcPBM binding intensity (ln)
TAACAAATATTATTTTGTACATAATATATATATATA [XGTACX_site6898]	9.79 ± 0.18
AATACACACCTGTGGGTGCTTATAATAAGCCACAAA	8.91 ± 0.085
TATTTTTTTATTTATTGTACTTTAAAAAAAATTAAA [XGTACX_site6167]	8.55 ± 0.35
TATATATATTAATTTATTTATTTGTTTATTTATTTA [CACACA_negctrl_site185]	8.41 ± 0.18
ATATATTTATATTATACACACAAAAATATTTTGTAT [CACACA_site6262]	8.33 ± 0.35
TTATAAAAATATTACGCACACACAAACTTATTCATT [CACACA_site1970]	8.58 ± 0.47
ATATAATAATATTATACATGCAAAATATGTTCTTCA [TGCATGCA_site115]	9.12 ± 0.44
ATCGCATATACATTATATTTTATAATAATTATTTTT [GTGCAC_negctrl_site48]	8.8 ± 0.37
AGACTATCATTTTTTTAACACACAAAAAAAATAAAA [CACACA_site9173]	8.29 ± 0.46
GGATATATTATATGTACACACATATATAACGGATAT [CACACA_site1309]	8.65 ± 0.35
TGTATACCTTAATATACACACATACATATATATATA [CACACA_site8370]	9.78 ± 0.2
CAACAAAAGAAACACACACACACAAACACAAAAAAA [CACACA_site3389]	8.24 ± 0.38
ATATATAAATATAGCATACACACAAAAAAATAAAAT [CACACA_site2332]	8.92 ± 0.48
ATGTAATAAATACTACGTACATATATATGTGTTAAT [XGTACX_site3265]	8.63 ± 0.36
ATATACATATTTTTGACACACATTAGGAAAATATAT [CACACA_site4123]	8.42 ± 0.3
TATTATTTATATGATACACACGTACATATACACATA [CACACA_site9275]	8.53 ± 0.33
TTCATTAAAACGAATACACACATAAATATATAAAAG [CACACA_site4824]	8.67 ± 0.27
AAATATATATATATTACACACTATATATTTATTTAT [CACACA_site681]	8.22 ± 0.31
TTAATTCTATACATAAATTATGTTTACATAAAGAAT [GTGCAC_negctrl_site246]	8.26 ± 0.33
ACAAATAAAAAAATTACACACATATATAATATATAT [CACACA_site1361]	8.49 ± 0.26
AGTAGTCTGGAGAAAAGTACACAGTATCTGGTAACA [XGTACX_site2034]	8.4 ± 0.47
AAAAATAAAATAAAATAAAATAAAAATAAAGAAAAA [CACACA_negctrl_site808]	8.54 ± 0.42
